According to PubChem BioAssay AID624417 (National Center for Advancing Translational Sciences (NCATS), 2012):
Screen size: about 410,000 compounds; about 6,400 (1.6%) were called active. Inconclusive results, whose numbers are uncertain, are shown with a selection of clear calls. Calls come from the whole dose curve; as a rule, active = well fitted inhibition curve with a large enough effect; inconclusive = small, poorly fitted or top-dose-only effect; inactive = no such curve, though single readings can be large or run the other way. No potency is given beside an inconclusive call; the fits are too rough.

target: Glucagon-like peptide 1 receptor (Homo sapiens) (UniProt P43220); experiment: qHTS of GLP-1 Receptor Inverse Agonists (Inhibition Mode); conditions: HEK293 GLP-1R CRE-luciferase, luminescence, 24 h, GLP-1R form is constitutively active; series mostly up to 38.3 µM; note: nearly all actives have a fitted effect of over 55% in size
UniProt P43220, sequence (P43220 whole entry, looked up): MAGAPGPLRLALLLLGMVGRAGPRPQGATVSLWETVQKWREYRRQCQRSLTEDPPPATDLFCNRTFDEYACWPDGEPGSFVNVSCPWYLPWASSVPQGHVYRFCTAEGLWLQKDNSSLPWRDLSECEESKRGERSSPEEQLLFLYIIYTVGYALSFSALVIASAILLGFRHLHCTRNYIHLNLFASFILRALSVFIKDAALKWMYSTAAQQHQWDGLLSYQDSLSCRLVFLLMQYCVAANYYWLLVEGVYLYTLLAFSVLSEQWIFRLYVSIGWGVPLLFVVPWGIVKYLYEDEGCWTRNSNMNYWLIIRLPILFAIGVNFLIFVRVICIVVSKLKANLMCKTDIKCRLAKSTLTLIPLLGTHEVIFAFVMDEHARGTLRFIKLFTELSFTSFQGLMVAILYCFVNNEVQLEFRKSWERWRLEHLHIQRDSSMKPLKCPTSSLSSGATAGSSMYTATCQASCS
How it was run: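 Cells are plated, allowed 12 hours at 37 deg C, then treated with compounds for 24 hr before luciferase detection reagent is added and luminescence is read after 12 min at room temperature. The HEK293 line carries constitutively active GLP-1R with a cAMP-responsive reporter.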
Potency is the fitted concentration of half-maximal effect; tags give direction and shape of the fitted curve.

SMILES | Potency
CCc1ccc(CN(Cc2ccco2)C(=O)c2ccc(C)cc2)cc1 | inconclusive [inhibitor, partial curve, poor fit]
COc1ccc(C(=O)Oc2ccc(C3NC(=O)c4c(sc5c4CCN(C)C5)N3)cc2OC)cc1 (configuration not stated) | inactive
Cc1ccc(C(c2nnnn2C2CCCC2)N2c3ccccc3CC2C)cc1 (configuration not stated) | inconclusive [inhibitor, single point]
COCC(C)Nc1ncnc2c1cnn2-c1cccc(Cl)c1 (configuration not stated) | inconclusive [inhibitor, single point]
Cc1cc(C)cc(OCC(=O)N2N=C(C(F)(F)F)CC2(O)C(C)(C)C)c1 (configuration not stated) | inconclusive [inhibitor, partial curve, poor fit]
COc1ccc(CCNC(=O)CSc2nn(-c3ccccc3)c(=S)s2)cc1 | inconclusive [inhibitor, single point]
COc1ccc(-c2nnc(SCc3ccccc3)n2N)cc1 | inactive
CN(C)S(=O)(=O)N1CCN(CC(O)COc2ccc(C(=O)c3ccccc3)cc2)CC1 (configuration not stated) | inconclusive [inhibitor, single point]
O=C(NCc1ccccc1)c1cc(C2COCCN2C(=O)OCCF)on1 (configuration not stated) | inactive
COc1ccccc1OCCNC(=O)c1ccc2c(c1)OCCO2 | inconclusive [inhibitor, partial curve, poor fit]
Cc1ccccc1NC(=O)C1C2C=CC(C3CC23)C1C(=O)O (configuration not stated) | inconclusive [inhibitor, partial curve]
COc1cc2c(cc1N)-c1ccc(N)cc1C2=O | inactive
O=C(N/N=C1\CCCc2ccccc21)c1cccc([N+](=O)[O-])c1 | inactive
CCn1c(SCc2nc(-c3ccc(Cl)cc3)no2)nnc1-c1ccco1 | inconclusive [inhibitor, single point]
C#CC[N+](C)(C)CC#Cc1ccc(Cl)cc1 | inconclusive [inhibitor, partial curve]
O=C(CNC(=O)C12CC3CC(CC(C3)C1)C2)N1CCCC(C(F)(F)F)C1 (configuration not stated) | inconclusive [inhibitor, single point]
CC(C)Nc1nc(Nc2ccc(C#N)cc2)c2sccc2n1 | inconclusive [inhibitor, single point]
COc1ccc(N=Nc2c(C)[nH]c3ccccc23)cc1 | inconclusive [inhibitor, partial curve, poor fit]
CCn1nnc(NC(=O)c2cccnc2)n1 | inactive
Cc1ccc(CNC(=O)CCSCc2ccccc2C)cc1 | inconclusive [inhibitor, single point]
CCC1(CC)Nc2ccccc2C(=O)N1c1ccc(OC)cc1 | inconclusive [inhibitor, single point]

SMILES | Potency
CCc1nnc(NC(=O)c2ccc(OC)cc2OC)s1 | inconclusive [inhibitor, partial curve, poor fit]
COc1ccc(C2CC(=O)Oc3c(C(CCN4CCCCC4)c4ccc(N(C)C)cc4)c(OC)cc(OC)c32)cc1 (configuration not stated) | inactive
NNC(=O)c1nnn(-c2nonc2N)c1CN1CCc2ccccc2C1 | inconclusive [inhibitor, partial curve, poor fit]
CC(Oc1ccc(-c2ccccc2)c(F)c1)c1ccn(S(=O)(=O)c2cccc3ccccc23)n1 (configuration not stated) | inconclusive [inhibitor, partial curve, poor fit]
CCc1cc(Cn2nc(-c3ccccc3)cc2C(=O)NCc2cccc(Br)c2)on1 | inconclusive [inhibitor, partial curve, poor fit]
CCOc1ccc(-c2[nH]ncc2Oc2ccccc2OC)c(O)c1 | active: 8.91 µM
Oc1ccc(C23CCCC2C2(CCCC2)c2ccc(O)cc2O3)c(O)c1 (configuration not stated) | inconclusive [inhibitor, single point]
CCc1ccc(-c2cc(C(F)(F)F)n3nc(C(=O)Nc4cnn(Cc5ccc(C)cc5)c4)cc3n2)s1 | inactive
CC1(C)OC(=O)C2=C(CC(CCc3ccccc3)OC2c2ccccc2)O1 (configuration not stated) | inconclusive [inhibitor, single point]
CCOC(=O)c1c(C)[nH]c(C)c1S(=O)(=O)N1CCC(C(=O)Nc2ccc(OC)c(OC)c2)CC1 | inactive
O=C(COc1cc2oc(=O)cc(-c3ccccc3)c2cc1Cl)NCCN1CCOCC1 | inconclusive [inhibitor, partial curve, poor fit]
CC1=NN(C(=O)c2ccc(Cn3ccc([N+](=O)[O-])n3)cc2)C(O)(C(F)(F)F)C1 (configuration not stated) | inconclusive [inhibitor, full curve, poor fit]
CC(OC(=O)Cc1ccc(Br)cc1)C(=O)NC1CCCCC1C (configuration not stated) | inconclusive [inhibitor, partial curve, poor fit]
Cc1ccccc1-c1cc(C(=O)Nc2sc(C(=O)OC(C)C)c(C)c2C#N)c2ccccc2n1 | inactive
S=c1sc2c(N3CCN(Cc4ccccc4)CC3)ncnc2n1-c1ccccc1 | inconclusive [inhibitor, full curve, poor fit]
COc1ccc(C(=O)NCC(c2ccc3c(c2)OCO3)N2CCN(C)CC2)cc1OC (configuration not stated) | inactive
O=C(CN1C(=O)NC2(CCc3ccccc3C2)C1=O)Nc1ccc(F)cc1 (configuration not stated) | inconclusive [inhibitor, partial curve, poor fit]
O=C(NC1CCCC1)C(c1ccc(F)cc1)N(Cc1ccc(F)cc1)C(=O)c1ccn[nH]1 (configuration not stated) | inconclusive [inhibitor, partial curve, poor fit]
O=C(c1ccc(Cl)cc1)C1CCN(C(=S)Nc2ccccc2)CC1 | inconclusive [inhibitor, partial curve, poor fit]
CCCN(CC(=O)Nc1ccc(F)c(F)c1F)C(=O)c1cc([N+](=O)[O-])ccc1N1CCOCC1 | inactive
CCOC(=O)Nc1ccc2nc(-c3cscn3)[nH]c2c1 | inconclusive [inhibitor, partial curve, poor fit]
